# Some of the results follow.
# B1: SSA (Sclerotinia sclerotiorum), A7XUK7 (protein)
# chain: MGFKGVGTYEIVPYQAPSLNLNAWEGKLEPGAVVRTYTRGDKPSDNAKWQVALVAGSGDSAEYLIINVHSGYFLTATKENHIVSTPQISPTDPSARWTIKPATTHQYEVFTINNKVSELGQLTVKDYSTHSGADVLSASAKTADNQKWYFDAK
# Experiments:
# Experiment in all cases: glycan array binding signal (z-score within array); higher = stronger binding
# Details in all cases: glycan notation: IUPAC condensed, linker removed
# [1] = target: Fuc(a1-2)Gal
# In short: (§1)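 The binding signal is a Z-score computed within each array and averaged over linkers. Arrays of the same protein sequence at different concentrations or buffers were also averaged together. Data originate from 3228 arrays in the Consortium for Functional Glycomics database, kept only where the protein sequence was available.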
# [2] = target: Fuc(a1-2)Gal(b1-3)GalNAc
# In short: as §1
# [3] = target: Fuc(a1-2)Gal(b1-3)GalNAc(b1-3)Gal
# In short: as §1
# [4] = target: Fuc(a1-2)Gal(b1-3)GalNAc(b1-3)Gal(a1-4)Gal(b1-4)Glc
# In short: as §1
# [5] = target: Fuc(a1-2)Gal(b1-3)GalNAc(b1-4)[Neu5Ac(a2-3)]Gal(b1-4)Glc
# In short: as §1
# [6] = target: Fuc(a1-2)Gal(b1-3)GlcNAc
# In short: as §1
# [7] = target: Fuc(a1-2)Gal(b1-3)GlcNAc(b1-2)Man(a1-3)[Fuc(a1-2)Gal(b1-3)GlcNAc(b1-2)Man(a1-6)]Man(b1-4)GlcNAc(b1-4)GlcNAc
# In short: as §1
# [8] = target: Fuc(a1-2)Gal(b1-3)GlcNAc(b1-3)Gal(b1-4)Glc
# In short: as §1
# [9] = target: Fuc(a1-2)Gal(b1-3)GlcNAc(b1-3)[Gal(b1-4)[Fuc(a1-3)]GlcNAc(b1-6)]Gal(b1-4)Glc
# In short: as §1
# [10] = target: Fuc(a1-2)Gal(b1-3)[Fuc(a1-4)]GlcNAc
# In short: as §1
# [11] = target: Fuc(a1-2)Gal(b1-3)[Fuc(a1-4)]GlcNAc(b1-2)Man(a1-3)[Fuc(a1-2)Gal(b1-3)[Fuc(a1-4)]GlcNAc(b1-2)Man(a1-6)]Man(b1-4)GlcNAc(b1-4)GlcNAc
# In short: as §1
# [12] = target: Fuc(a1-2)Gal(b1-4)Glc
# In short: as §1
# [13] = target: Fuc(a1-2)Gal(b1-4)Glc6S
# In short: as §1
# [14] = target: Fuc(a1-2)Gal(b1-4)GlcNAc
# In short: as §1
# [15] = target: Fuc(a1-2)Gal(b1-4)GlcNAc(b1-2)Man(a1-3)[Fuc(a1-2)Gal(b1-4)GlcNAc(b1-2)Man(a1-6)]Man(b1-4)GlcNAc(b1-4)GlcNAc
# In short: as §1
# [16] = target: Fuc(a1-2)Gal(b1-4)GlcNAc(b1-3)Gal(b1-4)GlcNAc
# In short: as §1
# [17] = target: Fuc(a1-2)Gal(b1-4)GlcNAc(b1-3)Gal(b1-4)GlcNAc(b1-3)Gal(b1-4)GlcNAc
# In short: as §1
# [18] = target: Fuc(a1-2)Gal(b1-4)GlcNAc6S
# In short: as §1
# [19] = target: Fuc(a1-2)Gal(b1-4)[Fuc(a1-3)]GlcNAc
# In short: as §1
# [20] = target: Fuc(a1-2)Gal(b1-4)[Fuc(a1-3)]GlcNAc(b1-2)Man(a1-3)[Fuc(a1-2)Gal(b1-4)[Fuc(a1-3)]GlcNAc(b1-2)Man(a1-6)]Man(b1-4)GlcNAc(b1-4)GlcNAc
# In short: as §1
# [21] = target: Fuc(a1-2)Gal(b1-4)[Fuc(a1-3)]GlcNAc(b1-3)Gal(b1-4)[Fuc(a1-3)]GlcNAc
# In short: as §1
# [22] = target: Fuc(a1-2)Gal(b1-4)[Fuc(a1-3)]GlcNAc(b1-3)Gal(b1-4)[Fuc(a1-3)]GlcNAc(b1-3)Gal(b1-4)[Fuc(a1-3)]GlcNAc
# In short: as §1
# [23] = target: Fuc(a1-2)Gal6S(b1-4)Glc
# In short: as §1
# [24] = target: Fuc(a1-2)Gal6S(b1-4)Glc6S
# In short: as §1
# [25] = target: Fuc(a1-2)Gal6S(b1-4)GlcNAc
# In short: as §1
# [26] = target: Fuc(a1-2)GlcNAc
# In short: as §1
# [27] = target: Fuc(a1-2)[Gal(a1-3)]Gal
# In short: as §1
# [28] = target: Fuc(a1-2)[Gal(a1-3)]Gal(b1-3)GlcNAc
# In short: as §1
# [29] = target: Fuc(a1-2)[Gal(a1-3)]Gal(b1-3)GlcNAc(b1-2)Man(a1-3)[Fuc(a1-2)[Gal(a1-3)]Gal(b1-3)GlcNAc(b1-2)Man(a1-6)]Man(b1-4)GlcNAc(b1-4)GlcNAc
# In short: as §1
# [30] = target: Fuc(a1-2)[Gal(a1-3)]Gal(b1-4)Glc
# In short: as §1
# [31] = target: Fuc(a1-2)[Gal(a1-3)]Gal(b1-4)GlcNAc
# In short: as §1
# [32] = target: Fuc(a1-2)[Gal(a1-3)]Gal(b1-4)GlcNAc(b1-2)Man(a1-3)[Fuc(a1-2)[Gal(a1-3)]Gal(b1-4)GlcNAc(b1-2)Man(a1-6)]Man(b1-4)GlcNAc(b1-4)GlcNAc
# In short: as §1
# [33] = target: Fuc(a1-2)[Gal(a1-3)]Gal(b1-4)[Fuc(a1-3)]GlcNAc
# In short: as §1
# [34] = target: Fuc(a1-2)[Gal(a1-4)]Gal(b1-4)GlcNAc
# In short: as §1
# [35] = target: Fuc(a1-2)[GalNAc(a1-3)]Gal
# In short: as §1
# [36] = target: Fuc(a1-2)[GalNAc(a1-3)]Gal(b1-3)GlcNAc
# In short: as §1
# [37] = target: Fuc(a1-2)[GalNAc(a1-3)]Gal(b1-3)GlcNAc(b1-2)Man(a1-3)[Fuc(a1-2)[GalNAc(a1-3)]Gal(b1-3)GlcNAc(b1-2)Man(a1-6)]Man(b1-4)GlcNAc(b1-4)GlcNAc
# In short: as §1
binder,measurement,setting,value
B1,glycan array binding signal (z-score),[1],0.516
same,glycan array binding signal (z-score),[2],0.988
same,glycan array binding signal (z-score),[3],-0.089
same,glycan array binding signal (z-score),[4],1.78
same,glycan array binding signal (z-score),[5],1.46
same,glycan array binding signal (z-score),[6],-0.132
same,glycan array binding signal (z-score),[7],-0.095
same,glycan array binding signal (z-score),[8],-0.151
same,glycan array binding signal (z-score),[9],-0.198
same,glycan array binding signal (z-score),[10],-0.356
same,glycan array binding signal (z-score),[11],-0.283
same,glycan array binding signal (z-score),[12],0.12
same,glycan array binding signal (z-score),[13],-0.023
same,glycan array binding signal (z-score),[14],-0.112
same,glycan array binding signal (z-score),[15],-0.278
same,glycan array binding signal (z-score),[16],0.191
same,glycan array binding signal (z-score),[17],0.169
same,glycan array binding signal (z-score),[18],0.014
same,glycan array binding signal (z-score),[19],-0.36
same,glycan array binding signal (z-score),[20],-0.173
same,glycan array binding signal (z-score),[21],-0.407
same,glycan array binding signal (z-score),[22],-0.32
same,glycan array binding signal (z-score),[23],0.161
same,glycan array binding signal (z-score),[24],0.457
same,glycan array binding signal (z-score),[25],0.07
same,glycan array binding signal (z-score),[26],-0.462
same,glycan array binding signal (z-score),[27],-0.373
same,glycan array binding signal (z-score),[28],-0.397
same,glycan array binding signal (z-score),[29],-0.312
same,glycan array binding signal (z-score),[30],-0.327
same,glycan array binding signal (z-score),[31],-0.393
same,glycan array binding signal (z-score),[32],-0.306
same,glycan array binding signal (z-score),[33],-0.326
same,glycan array binding signal (z-score),[34],-0.198
same,glycan array binding signal (z-score),[35],0.691
same,glycan array binding signal (z-score),[36],-0.312
same,glycan array binding signal (z-score),[37],-0.432

# Reference: the supplement of paper PMC8728848
